# Experimental data taken from ChEMBL document CHEMBL5606460, “ASAP - DENV-2 NS2B-NS3 protease fluorescence single point” (2024).
# Screen size: about 2,000 compounds; about 110 (5.5%) showed an effect of 50% or more. The list shows a part of the results.
# Target: Genome polyprotein (dengue virus type 2) (UniProt P29990)
# [1] = Thailand/16681/1984, Concentration 25.0 uM, Number of replicates 1.0
compound,measurement,setting,value
CNC(=O)c1cc(Cl)ccc1NS(=O)(=O)c1ccc(N2CCN(C)CC2)cc1,inhibition,"Thailand/16681/1984, Concentration 49.5 uM, Number of replicates 2.0, Standard deviation 0.08610681229787821 %",0.821%
same,inhibition,"Thailand/16681/1984, Concentration 99.01 uM, Number of replicates 2.0, Standard deviation 0.4310124703668382 %",0.867%
same,inhibition,"Thailand/16681/1984, Concentration 198.0 uM, Number of replicates 2.0, Standard deviation 0.6883761316524271 %",1.75%
O=Cc1ccc(N2CCC(C(=O)Nc3ccc(F)c(Br)c3)CC2)cc1,inhibition,[1],11.7%
COc1ccc(CN(C)C(=O)C2CCN(c3ccc(C=O)cc3)CC2)c(OC)c1,inhibition,[1],14%
NC(=O)c1ccc(CNC(=O)NCc2ccc(OCc3ccccc3)cc2)cc1,inhibition,"Thailand/16681/1984, Concentration 49.5 uM, Number of replicates 2.0, Standard deviation 0.6584955649548859 %",-0.275%
same,inhibition,"Thailand/16681/1984, Concentration 99.01 uM, Number of replicates 2.0, Standard deviation 0.579227797958503 %",0.348%
same,inhibition,"Thailand/16681/1984, Concentration 198.0 uM, Number of replicates 2.0, Standard deviation 0.34476708449941224 %",-0.309%
Oc1c(CNCc2nnc3ccccn23)ccc(F)c1F,inhibition,"Thailand/16681/1984, Concentration 49.5 uM, Number of replicates 2.0, Standard deviation 2.4207923311365867 %",1.93%
same,inhibition,"Thailand/16681/1984, Concentration 99.01 uM, Number of replicates 2.0, Standard deviation 8.877682452871714 %",6.11%
same,inhibition,"Thailand/16681/1984, Concentration 198.0 uM, Number of replicates 2.0, Standard deviation 0.406835436480746 %",6.15%
CCn1ccnc(N2CC[C@H](C3CCOCC3)C2)c1=O,inhibition,"Thailand/16681/1984, Concentration 50.0 uM, Number of replicates 2.0, Standard deviation 0.082374498127996 %",7.77%
same,inhibition,"Thailand/16681/1984, Concentration 100.0 uM, Number of replicates 2.0, Standard deviation 0.22598802996753292 %",16.5%
same,inhibition,"Thailand/16681/1984, Concentration 200.0 uM, Number of replicates 2.0, Standard deviation 0.7164411280199523 %",29.2%
COc1cccc(N2C[C@@H](NC(=O)C3CCN(c4ccc(C=O)cc4)CC3)CC2=O)c1,inhibition,[1],13.3%
CC[C@H]1c2cccn2CCN1C(=O)C1CCN(c2ccc(C=O)cc2)CC1,inhibition,[1],9.97%
CN(C)Cc1ccc(CN(C)C(=O)C2CCN(c3ccc(C=O)cc3)CC2)cc1,inhibition,[1],13.6%
c1ccc2c([C@H]3CCN(CC[C@H]4CCCOC4)C3)c[nH]c2c1,inhibition,"Thailand/16681/1984, Concentration 49.5 uM, Number of replicates 2.0, Standard deviation 0.10584354925280222 %",-2.92%
same,inhibition,"Thailand/16681/1984, Concentration 99.01 uM, Number of replicates 2.0, Standard deviation 1.1156488278571965 %",-1.89%
same,inhibition,"Thailand/16681/1984, Concentration 198.0 uM, Number of replicates 2.0, Standard deviation 1.1137416829620788 %",-1.06%
O=Cc1ccc(N2CCC(C(=O)NCc3ccccc3Oc3ccccc3)CC2)cc1,inhibition,[1],1.74%
CN(C)Cc1ccc(S(=O)(=O)Nc2cc(Cl)cc(C(=O)NC(C)(C)CO)c2)cc1,inhibition,"Thailand/16681/1984, Concentration 49.5 uM, Number of replicates 2.0, Standard deviation 0.03630462095770794 %",-4.04%
same,inhibition,"Thailand/16681/1984, Concentration 99.01 uM, Number of replicates 2.0, Standard deviation 1.3834969391783556 %",-4.68%
same,inhibition,"Thailand/16681/1984, Concentration 198.0 uM, Number of replicates 2.0, Standard deviation 0.4655810626343824 %",-3.5%
Cc1cc(CO)c2cccc(CC(=O)Nc3ccc(C(=O)O)o3)c2n1,inhibition,"Thailand/16681/1984, Concentration 49.95 uM, Number of replicates 2.0, Standard deviation 0.6719381020899052 %",88.9%
same,inhibition,"Thailand/16681/1984, Concentration 99.9 uM, Number of replicates 2.0, Standard deviation 0.0646782165500299 %",94%
Cc1cc(CO)c2cccc(Cc3cccc(C(=O)N[C@@H](C)C(N)=O)c3)c2n1,inhibition,"Thailand/16681/1984, Concentration 49.95 uM, Number of replicates 2.0, Standard deviation 0.7962665847500093 %",6.57%
same,inhibition,"Thailand/16681/1984, Concentration 99.9 uM, Number of replicates 2.0, Standard deviation 0.21200201975767785 %",24.1%
COc1ccc(C[C@H]2c3cc(OC)c(OC)cc3CCN2C(=O)C2CCN(c3ccc(C=O)cc3)CC2)cc1OC,inhibition,[1],15.8%
c1ccc2c(CN3CCC[C@H](c4c[nH]c5ccccc45)C3)c[nH]c2c1,inhibition,"Thailand/16681/1984, Concentration 50.0 uM, Number of replicates 2.0, Standard deviation 0.31540779529261 %",3.26%
same,inhibition,"Thailand/16681/1984, Concentration 100.0 uM, Number of replicates 2.0, Standard deviation 0.281265813425693 %",5.33%
same,inhibition,"Thailand/16681/1984, Concentration 200.0 uM, Number of replicates 2.0, Standard deviation 0.5614472727328977 %",8.73%
O=Cc1ccc(N2CCC(C(=O)N[C@H]3CC(=O)N(Cc4ccccc4)C3)CC2)cc1,inhibition,[1],14.5%
Cc1nc(C2CCN(Cc3c[nH]c4ccccc34)CC2)sc1C(=O)O,inhibition,"Thailand/16681/1984, Concentration 49.5 uM, Number of replicates 2.0, Standard deviation 2.532196482700825 %",-7.37%
same,inhibition,"Thailand/16681/1984, Concentration 99.01 uM, Number of replicates 2.0, Standard deviation 0.1962596660766768 %",-5.26%
same,inhibition,"Thailand/16681/1984, Concentration 198.0 uM, Number of replicates 2.0, Standard deviation 1.7247831523377455 %",-1.52%
CC(C)Nc1nc2ccc(C(=O)Nc3nnc4cccnn34)cc2[nH]1,inhibition,"Thailand/16681/1984, Concentration 49.5 uM, Number of replicates 2.0, Standard deviation 0.47864102228875616 %",-2.54%
same,inhibition,"Thailand/16681/1984, Concentration 99.01 uM, Number of replicates 2.0, Standard deviation 0.9476878624230379 %",-0.35%
same,inhibition,"Thailand/16681/1984, Concentration 198.0 uM, Number of replicates 2.0, Standard deviation 0.5058242222917364 %",4.68%
Cc1nn(Cc2noc(-c3ccccc3)n2)cc1C1CCNCC1,inhibition,"Thailand/16681/1984, Concentration 49.5 uM, Number of replicates 2.0, Standard deviation 0.8802677194228591 %",0.157%
same,inhibition,"Thailand/16681/1984, Concentration 99.01 uM, Number of replicates 2.0, Standard deviation 0.4630249405658938 %",0.972%
same,inhibition,"Thailand/16681/1984, Concentration 198.0 uM, Number of replicates 2.0, Standard deviation 1.7386847845568818 %",3.86%
Cc1cc(CO)c2cccc(Cc3cccc(C(=O)Nc4cc(O)[nH]n4)c3)c2n1,inhibition,"Thailand/16681/1984, Concentration 49.95 uM, Number of replicates 2.0, Standard deviation 1.1139101860624252 %",16.1%
same,inhibition,"Thailand/16681/1984, Concentration 99.9 uM, Number of replicates 2.0, Standard deviation 0.5605490390974336 %",35%
